Experimental data from the supplement of paper PMC3334620.
Over roughly 33,000 sequences, “E-score (-0.5 to 0.5)” has its median near -0.043; the highest 2% begin near 0.37. Some of the results follow.

biological target: T1, Upc2 (UniProt Q12151); experiment: PBM E-score (8-mer binding enrichment) (E-score (-0.5 to 0.5)); higher = stronger / more preferred TF binding; most listed sequences are background and not binding sites; conditions: protein concentration: 200 nM; construct: GST-full length
T1 sequence: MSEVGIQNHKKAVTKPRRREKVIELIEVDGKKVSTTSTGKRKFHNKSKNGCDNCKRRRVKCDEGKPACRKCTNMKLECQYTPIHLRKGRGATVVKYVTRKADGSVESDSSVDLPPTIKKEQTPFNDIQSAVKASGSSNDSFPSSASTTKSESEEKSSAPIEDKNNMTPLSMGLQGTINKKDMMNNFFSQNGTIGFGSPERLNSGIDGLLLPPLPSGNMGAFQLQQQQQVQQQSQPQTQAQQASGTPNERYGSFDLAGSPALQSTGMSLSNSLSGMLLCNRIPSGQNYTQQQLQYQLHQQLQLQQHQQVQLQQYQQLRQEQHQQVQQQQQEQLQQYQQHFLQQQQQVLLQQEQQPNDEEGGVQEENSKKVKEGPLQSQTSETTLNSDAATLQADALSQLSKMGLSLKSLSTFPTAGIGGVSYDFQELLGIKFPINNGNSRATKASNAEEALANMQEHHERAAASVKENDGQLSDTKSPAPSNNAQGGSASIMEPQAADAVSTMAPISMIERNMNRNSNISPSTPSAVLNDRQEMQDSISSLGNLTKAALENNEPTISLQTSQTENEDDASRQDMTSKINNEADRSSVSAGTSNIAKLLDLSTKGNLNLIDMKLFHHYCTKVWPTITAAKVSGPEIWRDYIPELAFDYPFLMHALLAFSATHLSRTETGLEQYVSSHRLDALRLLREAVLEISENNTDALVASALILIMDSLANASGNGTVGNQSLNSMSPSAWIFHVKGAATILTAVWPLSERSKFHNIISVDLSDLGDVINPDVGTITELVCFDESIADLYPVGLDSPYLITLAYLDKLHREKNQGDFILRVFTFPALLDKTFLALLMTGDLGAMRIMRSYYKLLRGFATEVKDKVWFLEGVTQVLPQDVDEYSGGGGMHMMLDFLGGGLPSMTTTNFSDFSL
How it was run: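 For each ungapped eight-base word taken together with its reverse complement, the Universal PBM Analysis Suite assigned an E-score. Binding data came from GST-tagged yeast transcription factors, applied at about 100-200 nM, on universal all-10-mer Agilent arrays made double-stranded by primer extension. Fluorescent anti-GST marked bound protein, and scans were normalised with masliner.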

| Sequence | PBM E-score |
| --- | --- |
| AGATTGCT | -0.117 |
| CAACGCAA | -0.0507 |
| GGCGAACA | -0.14 |
| ACATGGGG | -0.258 |
| CCCGGCGG | -0.224 |
| CGTCGTCC | -0.154 |
| GCTAACAC | -0.0792 |
| AAATGAGC | -0.0772 |
| ATATCCAC | -0.0735 |
| CGTACCTC | 0.361 |
| ATTCGGCG | -0.116 |
| AGGCGTAT | 0.244 |
| GGGTATGA | 0.0776 |
| CCAAAAGA | 0.0834 |
| AGGCGAGC | -0.133 |
| CACCGACG | 0.0873 |
| GTTAGCAA | -0.0503 |
| CCCATAAG | -0.141 |
| AGCCTCCT | -0.19 |
| ACCCTAGG | -0.151 |
| AATGGCTA | -0.0196 |
| ACGCCTCT | -0.0777 |
| CGCCGATA | -0.0179 |
| ACCGAAGC | 0.0937 |
| ATCGCGCG | 0.0846 |

| Sequence | PBM E-score |
| --- | --- |
| ACGAAGGC | 0.308 |
| CGAGCCTC | 0.192 |
| CCGCAGGA | -0.28 |
| ACAGAAGT | -0.171 |
| ATCGATCA | 0.0619 |
| TCACCTGA | -0.284 |
| GCCAGCCC | -0.202 |
| CCGTAAAC | 0.396 |
| CCATGGAC | -0.201 |
| AGGCGACC | -0.0928 |
| GATCATCA | -0.084 |
| CTTGACAA | -0.052 |
| GAGGCGAA | -0.145 |
| CGAGGGTC | 0.0856 |
| ATGTGGGA | -0.173 |
| GCTGTACA | -0.0266 |
| AATTTGCG | 0.0522 |
| GAACATTC | -0.124 |
| CACTGGAA | -0.0126 |
| GACAAGCA | -0.159 |
| ATTCTTTC | -0.00883 |
| GAGCGAGA | 0.28 |
| AAGCTCGT | 0.359 |
| ACTGGAAA | -0.0688 |
| GGCCTGAC | -0.236 |

| Sequence | PBM E-score |
| --- | --- |
| ACATTAGG | -0.188 |
| AGTGCTTG | 0.035 |
| CGAATGTC | 0.0431 |
| ATTTGCCG | 0.154 |
| CTCTCCTA | 0.0887 |
| AACATACG | 0.39 |
| AATGCCCG | 0.102 |
| AAGCACCA | -0.0736 |
| ACCAATAG | -0.36 |
| CCTCTGCC | -0.364 |
| GGACGCGA | -0.0406 |
| AGCTGTAT | -0.0312 |
| ACCTTACC | -0.0775 |
| TAGCAACA | 0.143 |
| CCGCTAGC | -0.11 |
| CGAGTTTC | 0.13 |
| AGTGGTTG | -0.0996 |
| ACGGCGTG | 0.169 |
| GAAGGACC | -0.276 |
| GAATAGCC | -0.235 |
| AACAGCGA | -0.0446 |
| ATGAACAA | -0.0285 |
| GAGGCTAC | -0.0974 |
| AATAGGCA | -0.103 |
| AAAGGTCG | 0.026 |

| Sequence | PBM E-score |
| --- | --- |
| CTTACGTC | 0.071 |
| TCATTAAA | 0.0186 |
| TCTTAAAA | 0.0224 |
| CTTAGTAA | -0.0811 |
| GTTATGGA | -0.044 |
| ACTGTAGG | -0.117 |
| ACGAAGGA | 0.379 |
| ACTCTACA | -0.123 |
| AGCACGCT | -0.248 |
| CACTCCGA | -0.262 |
| TCCATGCA | -0.139 |
| CTCTCTGC | -0.00538 |
| ACCCACGT | 0.0198 |
| AAACGGTA | 0.367 |
| ATCGTTGA | 0.23 |
| AGCATTAG | -0.26 |
| ATCGTCAA | 0.0601 |
| CACCTTAG | -0.244 |
| ACGGACTC | 0.0345 |
| GCAACCCC | -0.238 |
| ACTGAGAA | 0.0418 |
| ATGACGAG | 0.0327 |
| ATAAATGG | -0.11 |
| CGGGATTA | -0.0694 |
| ACATTTAT | -0.0104 |

| Sequence | PBM E-score |
| --- | --- |
| GCTCTTTA | 0.0811 |
| AGTAAATC | -0.188 |
| GGATAAGA | 0.0378 |
| AACACGCC | 0.0131 |
| GAAATGTC | -0.0124 |
| AAGATTGA | -0.156 |
| GAATAGTA | 0.042 |
| CGTATCCA | 0.314 |
| CTAAGAAG | -0.0917 |
| CAAACCCA | 0.0481 |
| GAGCGACC | 0.217 |
| CACTCCCG | -0.155 |
| CGGACAAG | 0.0883 |
| ATCAAAGG | -0.273 |
| ATGAGACC | -0.15 |
| CAAGGGCA | -0.263 |
| ACGCCATC | -0.0963 |
| CCACCGAA | -0.00574 |
| ATTCATGA | -0.129 |
| AATTATCC | 0.117 |
| ACATGGTA | 0.0707 |
| TACATTAA | 0.186 |
| AGATTTAG | -0.0164 |
| CTCTTGTC | 0.00178 |
| ATGGCCAA | -0.145 |

| Sequence | PBM E-score |
| --- | --- |
| GTGTAATA | -0.00421 |
| GCGGGCCA | -0.0555 |
| CCATTATA | 0.0163 |
| ATGGTTTA | 0.0958 |
| CTCGTTGC | 0.356 |
| TACTGGGA | -0.0123 |
| TGTGTTAA | 0.0703 |
| AGCGAGGG | 0.245 |
| CGAAAGAA | 0.0719 |
| AGTGCGAC | 0.00954 |
| ACCCGAGG | 0.135 |
| CGTCTTGA | -0.0191 |
| AACAGAAA | -0.0922 |
| ACGATGGC | 0.229 |
| GTACAACA | 0.245 |
| GTACACAA | 0.192 |
| GCAGGAAC | 0.0847 |
| CTATGACA | -0.213 |
| ATACATGC | 0.169 |
| CGCGTTCA | 0.242 |
| CATGCCGG | 0.0173 |
| TAGCGACA | 0.139 |
| CACCAGAG | -0.121 |
| AGTTTTAG | -0.0963 |
| GTTACTTA | -0.00158 |

| Sequence | PBM E-score |
| --- | --- |
| GCGCCCGA | 0.0653 |
| AAGACGCA | -0.185 |
| AGGAAGAC | -0.255 |
| ACACGATG | 0.166 |
| GGTATAAC | 0.135 |
| ATCGGCGC | -0.0516 |
| ACGCCTCA | -0.151 |
| GCATTAAC | 0.125 |
| AAATAAGG | -0.00115 |
| AGCTCCAC | -0.221 |
| GTGCTTAA | -0.059 |
| CCAGAAGG | -0.179 |
| ACATTTTC | -0.0382 |
| GACCTCCC | -0.187 |
| TAGGATAA | 0.106 |
| CGCTAACC | 0.143 |
| ATCGTCAC | -0.0261 |
| TCGGGGCA | -0.109 |
| TCATCGGA | -0.14 |
| ACCTAATA | 0.196 |
| GGACATGA | -0.069 |
| ATCCTAAA | 0.111 |
